Read counts are not given, so values of variants with three or more changes are uncertain.
B1: LINE1-full (parent)
chain: UACGUAGGUGGUUUUCCCCUGAUAGUGCUAAGGGGGCCUGGAAGUUUGGACUGGGCAGAGCUCAACACAGCGUGGCAAAGUGGCUGUGGCUAGACUGCCUCUCUGGAUUCCUCGUCACUCAGCAGGGCAUCUCUGAGAGAAAUGCC

Variants of: B1
Experiment: self-cleavage, relative activity (ratio to wild type); higher = more cleavage; in vitro, sequencing; the parent is a self-cleaving ribozyme

| Variant | self-cleavage |
| --- | --- |
| U15C U87A A117U | 0.08 |
| C19U A42G U134A | 0.76 |
| U15C C101U U104A | 1.26 |
| U15C U109A U130C | 1.71 |
| C17U U29C U47A A77U A141G | 0.65 |
| U15C U39C U46C | 1.64 |
| U15C U39C A65U C103A | 0.25 |
| C16U U73C U109C G114A | 1.47 |
| U15C A42G A142G | 1.64 |
| U15C A64G U91C | 0 |
| C18U C51A U96C | 0 |
| U15C U39A A64G A77G C145U | 0.56 |
| U15C A30U U96C | 0.22 |
| U15C U45C A138C | 2.16 |
| C19U A64G U96C A117U G122C A138G | 0.1 |
| C19U A136G A140G | 1.08 |
| U15C U26C U91C | 0.42 |
| U15C A77G U104A G135A | 2.34 |
| U15C U47A C111U | 1.74 |
| C18A A140G A141G | 0.84 |
| U15C U45C G58U G74U U104A U109C | 0.01 |
| U15C A24U U45C A142G | 0 |
| U15C U62C U85A C113U U143C | 0.04 |
| U15C A69G A78G U87A U104A | 0.08 |

| Variant | self-cleavage |
| --- | --- |
| U15C U91A A94G U130C C131U A140G | 0.38 |
| U15C A42U U46C | 1.06 |
| U15C U47C G75C U96C | 0 |
| C19U A42G C51A | 0.62 |
| U15G A117G G126A | 0.67 |
| U15C U81C U91C U112C G125A | 1.53 |
| C16A C37G A136U A138U | 0 |
| U15C U81A A124G A129G | 1.83 |
| U15C U81G G114U | 1.21 |
| U15C A31U G144U | 0.58 |
| U15C G25A A65G G88A C99U | 0.03 |
| U15C G21A U112A U134C | 2.83 |
| U15C A77G A78G | 2.37 |
| C17U C38U A124U | 1.34 |
| C17G A43G A50G A79U U134C | 1.25 |
| U15C A78G C145U | 1.05 |
| U15C A138G A140G | 2.3 |
| C18U A50G U109A A140G | 0.09 |
| U15C U26A U47C | 0.29 |
| U15C U87C U112C | 0.35 |
| C16U C19U A59G | 0.09 |
| U15C G41U U96C | 0.12 |
| U15C G72C A141G | 1.31 |
| U15C A64U C116U U132C | 0.62 |

| Variant | self-cleavage |
| --- | --- |
| U15C A22U U46C U85C G114U A141G | 0.28 |
| U15C U39A A57U U132C | 0.69 |
| U15C A43G U115A G126U | 1.26 |
| C18U A30G A50G A65G C95U U100C | 0 |
| U15C U85C U96A | 0.15 |
| C19U A22G C145A | 0.56 |
| C17U U20A A57U U104A | 0.07 |
| U15A U46A A78G | 1.24 |
| U15C A57U U62C A117U | 0.1 |
| U15G G32A G58A A138C | 0.09 |
| C18A A92G U134G | 0 |
| C17U U47A A64G U115C A117G U119A | 0 |
| U15C A94G U96C U130C | 0 |
| C19A U45C A141G | 1.77 |
| C16U U45A U85C A140G | 0.11 |
| C17U A121G U134C | 0.69 |
| U15C A64U G114A U134C | 0.42 |
| U15C A94G U115C A138G | 1.31 |
| U15C A69U A121G A141U | 0 |
| C18U C28A A78G U112C | 1.14 |
| U15C U26C A140G | 1.31 |
| C19U G32A A67G U132C A136G | 0.34 |
| C16A C51U A57U U85C | 0.04 |
| C16A G89A U112A U130C | 0.08 |

| Variant | self-cleavage |
| --- | --- |
| U15C C37A U47C U104C | 1.63 |
| C17U U20A A64U A92U U102C | 0.26 |
| U15C U81G A136G | 2.22 |
| U15C G53A U108A | 1.15 |
| U15C A59G U104C | 0 |
| U15C G41A A107U U109G A129G | 0 |
| U15C C38A U62A | 0.03 |
| U15C A30G U104G A107G G144A | 1.31 |
| C17U U20G A30G | 0.61 |
| C19A A24U G55A U62A A79G | 0.05 |
| U15C A94G U108C | 0.77 |
| C18G A22C C28U A121U G126A G139A | 0.49 |
| U15C G70U A77G G86U | 0.05 |
| U15C U73C A142G | 2.76 |
| U15C A107U U112A | 1.28 |
| C17A A22G A50U U62C U91A A140G | 0.09 |
| C19U A24G U29C A69G | 0 |
| U15C A22U G72U C131U | 1.34 |
| C16U U134C G139A | 0.59 |
| C18A C38A G137U | 0.56 |
| U15C A69U A136G U143C | 0.21 |
| U15C A50U A64G A94U C133A | 0.36 |
| U15C U45C A78G C145U | 1.46 |
| C17U U26C A57U A64G A129U | 0 |

| Variant | self-cleavage |
| --- | --- |
| C19U A78G A79U U91A U130A | 0.94 |
| C17A U47A A79G A107G C128U | 0.84 |
| C17U A77G U87C U143C | 0.35 |
| U15C A67U A107G | 0.19 |
| U15C U26A U46C | 1.93 |
| C18U A67G A138G | 0 |
| C17U A121G A141G | 0.92 |
| U15C A42U U87C | 0.31 |
| U15C C90U A124G | 0.05 |
| C19A C131U A138U | 1.45 |
| U15C A22G A42G U46C | 1.72 |
| U15C U91C A92U U96A | 0.06 |
| U15C U39C C133A | 0.95 |
| C16U U26C U73C | 1.23 |
| U15A U102C U115C | 0 |
| C19A U85A A129G | 0.17 |
| C18U U115A U143C | 0.46 |
| C17U A30G U109A | 0.29 |
| U15A U23C U130C | 1.36 |
| U15C U20C A59U A79G U96C | 0.61 |
| U15A U46C U109G | 1.93 |
| U15C C17G A22G G74A G122C | 1.05 |
| C19U A22G U115A A136U A138G U143C | 0.91 |
| C16U U62C A64G | 0.04 |

| Variant | self-cleavage |
| --- | --- |
| U15C G33A A50G U115C U134C C146U | 2.3 |
| C16U U62C U109C | 0.05 |
| C17U A77G U108C G114U U119C A136G | 2.8 |
| U15C U109C A117C A136U | 2.47 |
| U15C U115C A138U | 1.09 |
| U15C C17A U91C | 0.98 |
| U15C U115A A142G | 1.57 |
| U15C A64C A117G | 0.42 |
| U15C U102C C116U | 1.34 |
| C19U A22G U104A U130C A140G | 0 |
| C19U A24U U26A U47C C84U | 0.13 |
| U15A U46A U47C U85A | 0.03 |
| U15C U26C C71A | 0.3 |
| C17U A42G U46C U119A | 1.02 |
| C16A U26A C61U | 0.09 |
| C16U U23C U81C U109C | 1.84 |
| U15C A22G A43G A59G C145A | 0 |
| U15C G35U A42U U46A A142U | 0.8 |
| U15C A117G A124U | 0.8 |
| U15C A64G C118A | 0.44 |
| U15C U23C U62C U91C | 0.92 |
| C19U A43G A64U C76U | 1.15 |
| C16U U29C A138G | 1.23 |
| U15G A30U A42G A65U A79G | 0 |

| Variant | self-cleavage |
| --- | --- |
| U15C U109G C118A | 0.72 |
| U15C A57G U81A | 0.56 |
| U15C C17U A69G A77U | 0.13 |
| C19U A79U U134G | 1.23 |
| C17U U46A U134C | 1.08 |
| C19U A64C A69G U109C | 0 |
| U15C A59U A67C U73C | 0.19 |
| C19U A30U U91A | 0.54 |
| C18A C95U U143C | 0.15 |
| C18U A30G U112A | 0.51 |
| C16U U46A U104A | 0.96 |
| U15A U85C G86A | 0.07 |
| C19U A94G U102C U115C | 0 |
| U15C A65G U73C G74A U112C A140G | 0.05 |
| U15C A43G C99A | 0.74 |
| U15C A64U A78G | 0.53 |
| C18U A43G U46C U73A | 0.79 |
| U15C G122C U143A | 1.49 |
| C18A C103A U104C | 1.06 |
| U15C U108A U109C | 2.15 |
| U15C C37G C61U U134C | 0.03 |
| C18U G53U G127C A136U | 1.19 |
| U15C U45C G53A U85C | 0.18 |

From the RNAGym collection of RNA variant scans (doi:10.7554/elife.90254)
